Laboratory results from PubChem BioAssay AID1159614 (National Center for Advancing Translational Sciences (NCATS), 2016).
The whole screen tested about 45,000 compounds, of which about 65 (0.1%) were called active. Calls come from the whole dose curve; as a rule, active = well fitted activation curve with a large enough effect; inconclusive = small, poorly fitted or top-dose-only effect; inactive = no such curve, though single readings can be large or run the other way. The list shows a part of the results.

Target: Galactocerebrosidase (Homo sapiens) (UniProt P54803)
Assay: A Novel Cell-Based Assay to Identify Small Molecules for B -Galactocerebrosidase; note: 0% is about no effect; nearly all actives have a fitted effect of over 65% in size
Settings: 145M-Twi-hGALC-G270D cells (Twitcher mouse brain line with human GALC G270D), HMU-beta-Gal fluorescence, 48 h; series mostly up to 57.5 µM; activation: at the top concentration
Outline: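 Fluorescence readout: HMU-β-gal cleavage by mutant GALC (0.1 mM final, citrate/phosphate pH 5.2 with 1 mg/mL taurocholate), stopped with carbonate/bicarbonate plus Triton X-100. Cells: murine Twitcher 145M-Twi expressing human G270D GALC; qHTS for activators.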

UniProt P54803, sequence (P54803 whole entry, looked up): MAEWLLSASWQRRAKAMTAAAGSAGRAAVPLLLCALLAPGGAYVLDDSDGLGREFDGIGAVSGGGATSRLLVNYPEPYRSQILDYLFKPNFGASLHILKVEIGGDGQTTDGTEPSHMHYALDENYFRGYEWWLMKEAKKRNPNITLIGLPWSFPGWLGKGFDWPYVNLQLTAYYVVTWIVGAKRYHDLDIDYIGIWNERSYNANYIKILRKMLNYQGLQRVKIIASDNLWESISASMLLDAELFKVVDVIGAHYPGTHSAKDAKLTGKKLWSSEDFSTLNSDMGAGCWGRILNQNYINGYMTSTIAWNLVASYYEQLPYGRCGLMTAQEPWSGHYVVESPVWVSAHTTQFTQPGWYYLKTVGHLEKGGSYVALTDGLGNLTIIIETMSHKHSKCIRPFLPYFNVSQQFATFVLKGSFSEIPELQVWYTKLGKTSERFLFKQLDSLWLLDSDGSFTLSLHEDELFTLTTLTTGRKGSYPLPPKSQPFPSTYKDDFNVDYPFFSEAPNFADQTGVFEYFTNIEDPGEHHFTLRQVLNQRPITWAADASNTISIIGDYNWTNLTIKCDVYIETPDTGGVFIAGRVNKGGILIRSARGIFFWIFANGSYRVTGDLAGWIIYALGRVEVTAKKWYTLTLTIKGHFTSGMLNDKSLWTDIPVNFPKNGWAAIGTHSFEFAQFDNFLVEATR

activation, inactive:
Cc1ccccc1NC(=O)CCN1C(=O)c2ccccc2Sc2ncccc21 -1.55%
Cc1ccccc1C(=O)NCCc1sc(-c2ccc(Cl)cc2)nc1C -13.9%
COc1ccc(CNC(=O)Cc2csc3nc(-c4ccc(F)cc4)cn23)cc1 -17.3%
O=C1C(c2ccc(C(F)(F)F)cc2)=C(Nc2ccc(Cl)cc2)c2ccccc21 -14.9%
Cc1nnsc1C(=O)Oc1ccccc1Cl -13.9%
Cc1cccc(-c2cc(NC(=O)COc3ccccc3F)n(-c3ccccc3)n2)c1 -15%
Cc1ccc(-n2c(=O)c3sccc3n(Cc3cc(=O)n4ccccc4n3)c2=O)cc1 -15.1%
COc1ccc(C(=O)N2CCC(C(=O)Nc3ccc(OC)cc3OC)CC2)cc1 -16.6%
CCN(C(=O)Cn1nc(Cc2cccnc2)c2ccccc2c1=O)c1cc(C)ccc1C -15.3%
Cc1ccccc1C(=O)Nc1nnc(S(=O)(=O)N2CCCc3ccccc32)s1 -13.5%
CCN(CC)CCOC(=O)c1ccc(NC(=O)CCn2c(=O)oc3ccccc32)cc1 -2.86%
Cc1ccc(-c2cn3c4c(=O)n(C)c(=O)n(C)c4nc3n2-c2cccc(Cl)c2)cc1 -26.3%
CSc1ccccc1NC(=O)CCS(=O)(=O)c1nc(-c2cccs2)cc(C(F)(F)F)n1 -13%
Cc1ccc(NC(=O)CSc2nnc(-c3cc4occc4n3C)n2-c2ccccc2C)cc1F -8.58%
COc1ccc(C(=O)N=c2sc3cc(Cl)ccc3n2C)cc1 0.116%
CCn1c(C(=O)Nc2cc(C)cc(C)c2)cc2sc(Cl)cc21 1.34%
CCCCN(C)c1ncnc2c1cnn2-c1cccc(Cl)c1 -3.44%
CN1[C@@H]2CC[C@H]1CC(OC(=O)c1c[nH]c3ccccc13)C2 (some centres not stated) -18.1%
N#Cc1ccccc1NC(=O)C(=O)NCC(c1cccnc1)N1CCc2ccccc2C1 (configuration not stated) -20%
COc1ccc(N(CC(=O)Nc2ccc(Cl)cc2C)S(=O)(=O)c2ccccc2)c(OC)c1 -19.5%
COc1cc(-c2nnc(SCC(=O)N3CCCc4ccccc43)o2)cc(OC)c1OC -7.94%
O=C(NCc1ccccc1Br)c1ccc(-n2cnc3cccnc32)cc1 -0.431%
CCc1ccc(S(=O)(=O)c2nnn3c2nc(Nc2cccc(C)c2C)c2sccc23)cc1 -10.7%
CCC(=O)N1CCc2cc(S(=O)(=O)NCCC(=O)Nc3cccc(C)c3C)ccc21 -18.5%
COc1cccc(CNc2ccc3c(c2)ncn3C)c1OC -21.9%
Cc1cc(SCC(=O)NCc2ccccc2)nc(=O)[nH]1 -12.4%
CCOc1ccccc1NC(=O)C1CCCN(S(=O)(=O)c2ccc3c(c2)CCCN3C(C)=O)C1 (configuration not stated) -18.6%
COc1ccc(OC)c(CCNC(=O)C(C)n2nc(C)c3c(C)n(-c4ccc(C)cc4)nc3c2=O)c1 (configuration not stated) -12.7%
Cc1ccc(Cl)cc1N1CCN(C(=O)Cn2nc(C)n3c(cc4sccc43)c2=O)CC1 -46.9%
CCOC(=O)c1c(-c2ccccc2)csc1NC(=O)c1cc(-c2cccc(OC)c2)on1 2.11%
Cc1cc(C)cc(C(=O)Nc2c3c(nn2-c2ccccc2C)CS(=O)(=O)C3)c1 -25.3%
CCCN(C(=O)CCn1cnc2onc(-c3ccc(F)cc3)c2c1=O)c1ccccc1C 6.61%
O=C(CN1C(=O)COc2ccc(S(=O)(=O)N3CCCCCC3)cc21)N1CCN(c2ccccc2)CC1 -12.7%
Cc1cc(C)cc(NC(=O)Cn2nnc(C(=O)NCc3ccco3)c2N)c1 -16.6%
CCC(=O)N1c2nc(C(C)C)nn2C2(CCCCC2)[C@@H]2CCCC[C@@H]21 -1.1%
Cc1ccc(C(=O)Nc2nnc(SCc3cc(=O)n4ccc(C)cc4n3)s2)cc1 2.88%
O=C(Cn1nc2c(cc1=O)CCCC2)NCc1ccccc1Cl -23.4%
COc1ccc(NCc2cccn2-c2nnc(N3CCOCC3)s2)c(OC)c1 -13.6%
O=C(Cn1c(SCc2cccc(F)c2)nc2ccncc21)Nc1ccc(Cl)cc1F -11.8%
CCOc1cc(CNC(=O)C(NS(=O)(=O)c2cccs2)C(C)C)cc(OCC)c1OCC (configuration not stated) -28.1%
O=C(NNc1ncnc2c1cnn2-c1ccccc1)c1ccccc1 -20.9%
CCOC(=O)c1cccc(NC(=O)C2CCN(c3nnc(C)c4c(C)n(-c5ccccc5)nc34)CC2)c1 -1.77%
COCCNC(=O)Cn1c(=O)n(-c2ccc(C)c(C)c2)c(=O)c2c3c(sc21)CCCCC3 3.21%
COc1ccc(Cl)cc1NC(=O)C(C)N1Cc2ccccc2C1=O (configuration not stated) -11%
COc1ccc(NC(=O)CN2CCN(S(=O)(=O)c3ccc(Br)cc3)CC2)cc1 -6.43%
CCOc1ccccc1CNC(=O)c1cccc(NC(=O)c2nsc3ccccc23)c1 -5.12%
CCOC(=O)c1c(NC(C)=O)c2c3c(sc2n1Cc1cccc(Cl)c1)CCCC3 -11.5%
Cc1ccc(C(CC(=O)Nc2ccc(C)cc2C)N2Cc3ccccc3C2=O)cc1 (configuration not stated) -31.3%
Cc1cn2c(=O)cc(COc3cccc(NC(=O)c4cccc(F)c4)c3)nc2s1 -6.39%
COc1ccc(C(=O)Nc2ccc3nc(N4CCCCC4)cc(C)c3c2)c(OC)c1 -6.99%
COc1ccc(N2CCN(S(=O)(=O)CCNC(=O)Cc3ccc(-c4ccccc4)cc3)CC2)cc1 -13.5%
CCCc1oc2ccc(NS(=O)(=O)c3ccc(OC)cc3)cc2c1C(=O)OCC -10.6%
CCC(Oc1ccc(F)cc1)C(=O)Nc1cc(-c2ccc(C)cc2)no1 (configuration not stated) -18.2%
COc1cccc(CNC(=O)Nc2cc(C(=O)NCc3cccc(F)c3)ccc2N2CCCC2)c1 -17%
CCNC(=O)CCSc1nnc(-c2ccc(O)cc2)o1 -14.1%
Cn1c(=O)c2ccccc2n2c(CCC(=O)N3CCN(c4cccc(Cl)c4)CC3)nnc12 -15.6%
CCOc1ccc(NC(=O)CC2C(=O)N(c3cccc(OC)c3)C(=O)N2C2CCCCC2)cc1 (configuration not stated) -11.3%
CCOc1cc(CNC(=O)c2ccc(NC(=O)c3nsc4ccccc34)cc2)ccc1OC -25.2%
CCN(CC)c1ccc(NC(=O)c2cc(CN3CCCC3)on2)c(C)c1 -19.4%
COc1ccc(Cn2c(SCC(=O)NCc3ccccc3)nc3ccccc32)cc1 -42.6%
CCCCn1c(Oc2cccc(C(=O)OC)c2)nc2c1c(=O)n(C)c(=O)n2C 17.8%
Cc1ccc(C(=O)NCC(=O)OCc2cc(=O)n3nc(C4CCCCC4)sc3n2)cc1 -3.14%
CCOc1ccc(NC(=O)Cn2nnc(C(=O)OC)c2C(=O)OC)cc1 -19%
COc1ccccc1C(=O)Nc1cc(-c2cccc(Br)c2)nn1-c1ccccc1 -16.9%
Cc1cc(C)cc(N2C(=O)CC(c3ccc(C(F)(F)F)cc3)C3=C2COC3=O)c1 (configuration not stated) -8.79%
COc1ccc(Cl)cc1NC(=O)C(C)n1nnc2sc3c(c2c1=O)CCCC3 (configuration not stated) -0.387%
Cc1cccc(NC(=O)CSc2nc(-c3cccs3)cc(C(F)(F)F)c2C#N)c1 3.11%
CCN1CCN(c2csc3ccc(Cl)cc3c2=O)CC1 -14.7%
CCc1cccc(NC(=O)Cn2nc(CC)n3c(cc4cc(C)ccc43)c2=O)c1 -18.7%
O=c1oc2ccc3ccccc3c2cc1-c1nnc(Nc2ccccc2)s1 1.51%
COc1ccc(C(=O)NC2(C(F)(F)F)C(=O)NC(C)=C2C#N)cc1 (configuration not stated) -5.89%
Cc1ccc2c(c1)C(c1ccc(F)cc1)N(C(=O)C(C)C)CC(=O)N2 (configuration not stated) 7.83%
CCC(=O)Nc1cc(C(=O)NCc2ccc(C)cc2)ccc1S(=O)(=O)c1ccc(C)cc1 -22.9%
COc1ccc(N2CCN(S(=O)(=O)c3ccc(-c4cc(C(F)(F)F)on4)s3)CC2)cc1 -7.42%
COc1cccc(NC(=O)CSc2nc(O)c(C/C=C/c3ccccc3)c(=O)[nH]2)c1 -15.1%
COc1cc(NC(=O)c2nc3cc(C)c(C)cc3n(C)c2=O)cc(OC)c1OC -12.6%
Cc1ccc(CCNC(=O)c2sc3ncccc3c2-n2cccc2)cc1 -10.2%
CC1CCC(NC(=O)C2(C)Cc3ccccc3C(=O)N2Cc2ccccc2Cl)CC1 (configuration not stated) -5.93%
Cc1cc(C)c2oc(C(=O)Nc3c(C(=O)c4ccc(F)cc4)oc4ccccc34)cc(=O)c2c1 -15.1%
Cc1cccc(OCc2ccc(-c3nc(C#N)c(N4CCN(c5ccccc5)CC4)o3)o2)c1 -12.7%
Cc1ccc(C)c(CN2C(=O)c3ccccc3Sc3ccc(C(=O)NCc4ccco4)cc32)c1 3.21%
CCc1cccc(C)c1Nc1c(-c2ccc(N(C)C)cc2)nc2ncccn12 -38.3%
COC(=O)c1c(-c2cccs2)csc1NC(=O)c1cc(OC)cc(OC)c1 -12%
CCN(CC)c1ccc(NC(=O)Cn2c(C)c3cnn(-c4ccccc4)c(=O)c3c2C)c(C)c1 -3.76%
Cc1cc(Cl)ccc1NC(=O)CCS(=O)(=O)c1cc2c(cc1C)NC(=O)CO2 -1.16%
Clc1cccc(-n2ncc3c(NCCCc4ccccc4)ncnc32)c1 -7.26%
COc1cc(C(C)=O)ccc1OCCCN1CCC(c2noc3cc(F)ccc23)CC1 -9.26%
Cc1cc(C)cc(NC(=O)C(Cc2ccccc2)N2Cc3ccccc3C2=O)c1 (configuration not stated) -20%
O=C(NCCSc1c(-c2ccc(Br)cc2)[nH]c2ccccc12)c1ccc(S(=O)(=O)N2CCOCC2)cc1 -9.88%
Cc1ccc(CNC(=O)C(CC(C)C)N2Cc3ccccc3C2=O)cc1 (configuration not stated) -12.6%
Cc1ccc(Cl)cc1NC(=O)Cn1c(=O)c(CNc2ccccc2)cc2cc3c(cc21)OCCO3 10.5%
CCOC(=O)C1=C(CN2CCN(c3ccccc3)CC2)NC(=O)NC1c1ccc(C)cc1 (configuration not stated) -23.5%
COc1ccc(C2c3c(-c4ccccc4O)n[nH]c3C(=O)N2Cc2ccco2)cc1 (configuration not stated) -6.1%
Cc1sc2ncn(CC(=O)Nc3cccc(C(F)(F)F)c3)c(=O)c2c1S(=O)(=O)N1CCC(C)CC1 -26.4%
COc1cccc(C(=O)NC(=O)Nc2ccc(-c3cc(C(F)(F)F)nn3-c3ccccc3)cc2)c1 1.48%
O=C(Nc1ccccc1C(=O)OCc1cc(=O)n2nc(C3CC3)sc2n1)c1cccc(Cl)c1 -5.46%
Cc1cccc(Cn2c(CN3CCC(C(=O)NCCc4ccccc4)CC3)cc3ccccc32)c1 -18.7%
